# “And” between values parts separate entries of the source, which are not always exact repeats. Equal entries are not always repeated. The campaign covered roughly 73,000 compounds. About 2,500 (3.4%) were called active. The inconclusive results got no clear call from the source; some entries with a clear call stand among them for comparison. Calls follow the shape of the dose curve; as a rule, active = well fitted inhibition curve with a large enough effect; inconclusive = small, poorly fitted or top-dose-only effect; inactive = no such curve, though single readings can be large or run the other way. Potencies of inconclusive entries are doubtful fits and often do not repeat.
# Molecular target: 3-hydroxyacyl-CoA dehydrogenase type-2 (Homo sapiens) (UniProt Q99714)
# Chain of UniProt Q99714 (Q99714 whole entry, looked up): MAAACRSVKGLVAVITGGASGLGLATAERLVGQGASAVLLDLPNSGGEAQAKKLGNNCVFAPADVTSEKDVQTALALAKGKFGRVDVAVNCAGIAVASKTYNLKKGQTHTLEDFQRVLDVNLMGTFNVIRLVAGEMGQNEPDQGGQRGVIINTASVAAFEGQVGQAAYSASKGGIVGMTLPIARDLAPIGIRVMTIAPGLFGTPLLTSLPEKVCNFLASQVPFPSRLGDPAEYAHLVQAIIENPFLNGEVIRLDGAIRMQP
# Chain of UniProt Q99714 (Q99714 whole entry, looked up): as above
# Test: qHTS Assay for Inhibitors of HADH2 (Hydroxyacyl-Coenzyme A Dehydrogenase, Type II); also: nearly all actives have a fitted effect of over 60% in size
# Settings: recombinant HADH2, NADH fluorescence, beta-hydroxybutyryl-CoA; activity change, negative = inhibition: at 57.1 µM (top of the series)
# Summary of the method: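 His-tagged recombinant enzyme from E. coli, 20 nM, preincubated 15 min RT with compound; reaction started with 1 mM NAD+ and 90 uM beta-hydroxybutyryl-CoA in 100 mM Tris-HCl pH 9.0. NADH fluorescence (ex 360/em 450) read over 4 min; last-minus-first difference.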
# % is scaled to controls: 0 for no effect and ±100 for the full control effect; potency is read from the fitted curve at half-maximal effect; tags tell the direction and shape of the fitted curve.
SMILES,Potency,"activity change, negative = inhibition"
O=C(NC(=Nc1ccccc1)N1CCOCC1)Nc1ccccc1,"inconclusive: 0.794 µM [inhibitor, single point]",–
O=C(c1ccc2c(c1)OCO2)N1CCCN(C(=O)c2ccc3c(c2)OCO3)CC1,"inconclusive: 1.26 µM [inhibitor, single point]",–
Cc1ccc(C(=O)Nc2nc3c(s2)CCCC3)o1,active: 25.1 µM,–
Cc1ccc(S(=O)(=O)N2CCCCC2)cc1C(=O)Nc1ncn[nH]1,"inconclusive: 31.6 µM [inhibitor, single point]",–
CN(C)C(CNC(=O)CN1C(=O)NC2(CCc3ccccc32)C1=O)c1ccco1 (configuration not stated),"inconclusive: 0.199 µM [inhibitor, single point]",–
CCCOc1ccc(Cc2nn3c(=O)/c(=C/c4ccco4)sc3nc2=O)cc1,"inconclusive: 39.8 µM [inhibitor, single point]",–
CCCn1c(-c2ccccc2)nc2c(=O)n(C)c(=O)[nH]c21,active: 12.6 µM,–
Oc1cc(Cc2ccccc2)cnc1CN1CCCCC1,inactive,–
Clc1ccc(Nc2ncnc3c2cnn3-c2ccccc2)cc1,"inconclusive: 15.8 µM [inhibitor, partial curve]",–
CCOC(=O)c1c(NC(=O)CC)sc(C(C)=O)c1C,"inconclusive: 39.8 µM [inhibitor, single point]",–
Nc1nc(CSc2nc3ccccc3[nH]2)cs1,"inconclusive: 3.98 µM [inhibitor, single point]",–
CCN1C(=S)SC(=O)C1=C1C=C(C)N(CCO)C(C)=C1,"inconclusive: 12.6 µM [inhibitor, partial curve]",–
Cc1ccc(-n2c(C)nc3oc4ccccc4c(=O)c3c2=O)cc1,inactive,–
Cc1onc(-c2ccccc2)c1C(=O)N1CCc2ccccc21,inactive,–
Cc1c(C(=O)NCc2cccnc2)sc2ncn(CC(=O)N3CCCCC3C)c(=O)c12 (configuration not stated),inactive,–
Cc1cc(NC(=O)CCC2CCCC2)no1,inactive,–
N#Cc1nc(-c2ccc(OCc3ccc(Cl)cc3)cc2)oc1N1CCC(C(N)=O)CC1,inactive,–
COCCn1c(=S)[nH]c2cc(C(=O)N3CCC(C(N)=O)(N4CCCCC4)CC3)ccc2c1=O,inactive,–
CCOC(=O)c1[nH]c2ccc(OC)cc2c1NC(=O)OC,"inconclusive: 39.8 µM [inhibitor, single point]",–
Cc1cccc(OCc2nnc(SCc3nc4cc(C(F)(F)F)ccc4c(=O)[nH]3)o2)c1,"inconclusive: 39.8 µM [inhibitor, single point]",–
O=C(C[C@@H](C(=O)O)N1CCOCC1)c1ccccc1,"inconclusive: 1.58 µM [inhibitor, partial curve]",–
Cc1ccc(O)c(C2=NOC(O)(C(F)(F)C(F)F)C2)c1 (configuration not stated),"inconclusive: 20 µM [inhibitor, partial curve]",–
NC1=CC(=O)c2cccc3cccc1c23,"inconclusive: 2 µM [inhibitor, full curve]",–
CCCCC1C(=O)N(c2ccccc2)N(c2ccccc2)C1=O,"inconclusive: 3.16 µM [inhibitor, full curve]",–

SMILES,Potency,"activity change, negative = inhibition"
Cc1ccc(CNc2ccc(O)cc2)cc1,active: 10 µM,–
Cc1c(C(=O)Nc2ccccc2Cl)oc2ccc(S(=O)(=O)N3CCC4(CC3)OCCO4)cc12,"inconclusive: 31.6 µM [inhibitor, single point]",–
CCCc1ccc(Oc2cn[nH]c2-c2ccc(O)cc2O)cc1,"inconclusive: 3.98 µM [inhibitor, partial curve]",–
CN(C)c1ccc(N=Nc2cccc3ccoc23)cc1,–,inactive: 0.497% [at 11.4 µM]
COc1cc(-c2nc(-c3cccc(C(F)(F)F)c3)no2)cc(OC)c1OC,"inconclusive: 39.8 µM [inhibitor, single point]",–
COc1ccc2c(c1)[n+]([O-])c(/C(C)=N/NC(N)=S)c(C)[n+]2[O-],"inconclusive: 3.16 µM [inhibitor, partial curve]",–
COc1ccc2cc(C#N)c(NC(C)C)nc2c1,"inconclusive: 39.8 µM [inhibitor, single point]",–
Nc1n[nH]c(S(=O)(=O)CCCc2ccccc2)n1,inactive,–
CC(=O)[C@H]1CC[C@@H]2[C@H]3CC=C4C[C@@H](O)CC[C@]4(C)[C@H]3CC[C@]12C,inactive,–
Nc1nnc(CCN2C(=O)CSC2=O)s1,"inconclusive: 31.6 µM [inhibitor, single point]",–
CCOC(=O)C1C(=O)NC(SCC(=O)OC)=C(C#N)C1c1ccccc1OCC (configuration not stated),inactive,–
O=C1C(=C(O)c2ccccc2)C(=O)c2ccccc21,"inconclusive: 3.16 µM [inhibitor, full curve]",–
O=C1C2=C(Nc3ccccc3SC2c2ccco2)c2ccccc21 (configuration not stated),active: 25.1 µM,–
CCn1cc(C(=O)O)c(=O)c2cc(F)c(N3CCN[C@@H](C)C3)c(F)c21,active: 25.1 µM and active: 15.8 µM,–
C[C@@H]1O[C@@H](OC[C@@H]2O[C@@H](Oc3c(-c4ccc(O)c(O)c4)oc4cc(O)cc(O)c4c3=O)[C@H](O)[C@H](O)[C@@H]2O)[C@H](O)[C@H](O)[C@@H]1O,active: 31.6 µM,–
O=c1c2ccccc2nc(COc2ccccc2)n1/N=C/c1ccco1,inactive,–
COc1cc(C2=Nc3c(c(C)nn3-c3ccccc3)P(=O)(N3CCOCC3)O2)cc(OC)c1OC (configuration not stated),"inconclusive: 39.8 µM [inhibitor, single point]",–
CCCOc1ccc(C2C(C(=O)OC)=CN(CCOC)C=C2C(=O)OC)cc1,"inconclusive: 31.6 µM [inhibitor, single point]",–
N#C/C(C(=O)NCc1ccco1)=C1/SC=C(c2ccccc2)N1c1ccccc1,"inconclusive: 12.6 µM [inhibitor, partial curve]",–
COc1ccc(CNc2ccnc(-c3cccnc3)n2)c(OC)c1,"inconclusive: 31.6 µM [inhibitor, single point]",–
COc1ccc(-n2ncc3c(N4CCc5ccccc54)ncnc32)cc1,active: 31.6 µM,–
COc1cc(CNc2cccc(F)c2)cc(Br)c1O,active: 12.6 µM,–
Cn1c(NCc2c[nH]c3ccccc23)nc2ccccc21,inactive,–
